Reference: the supplement of paper PMC10126150
Values marked as one replicate rest on one cluster of the flow cell; about a third of the high ones do not repeat.

Each sequence was assayed on ATP (assay: switch fluorescence ratio, 500 uM ATP over buffer (Cy3 cluster intensity, sum of 5 cycles each) (fold (ratio)); higher = stronger signal-on switching upon ATP binding; sequences stand for … in TCGTCGGCAGCGTCAGATGTGTATAAGAGACAGTTTTTTTTTTTTTTTTTTTTTTTTT…TC). Details: aptamer strand: ATP DNA aptamer (quencher-CACCTGGGGGAGTATTGCGGAGGAAGG + anchor), 100 nM annealed; ATP concentration: 500 uM; one replicate.
Summary of the method: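 Clusters with intensities outside 100-1000 RFU were excluded. The remaining Cy3-labelled switching-strand clusters on a modified Illumina MiSeq flow-cell had been annealed to 100 nM quencher-labelled ATP aptamer and imaged in selection buffer, then after 15 min with 500 uM ATP at 22 °C, for five cycles separated by NaOH stripping and re-annealing. The fluorescence ratio, averaged per switch-domain sequence, is each cluster's summed target-cycle Cy3 intensity over its summed buffer-cycle Cy3 intensity.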
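Note: ATP exposure 15 min at 22 °C before imaging.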

| Sequence | switch fluorescence ratio |
| --- | --- |
| CTTATTGGAG | 0.971 |
| CTTCAACCCG | 1.07 |
| CTTCATAGTT | 0.985 |
| CTTCATCGAC | 1.24 |
| CTTCCCTTGT | 1.03 |
| CTTCGAGTAA | 1.09 |
| CTTCGCGTAT | 1.26 |
| CTTCGGCGGC | 1.16 |
| CTTCGGGT | 1.02 |
| CTTCGGTCAC | 1.42 |
| CTTCTACTAC | 1.21 |
| CTTCTATCGC | 1.45 |
| CTTCTCAATG | 1.07 |
| CTTCTCACAG | 0.989 |
| CTTCTTCTGT | 1 |
| CTTGAAAATG | 1 |
| CTTGACCTTG | 0.98 |
| CTTGAGGTAG | 1.01 |
| CTTGCATGCA | 0.997 |
| CTTGCCATGG | 1.04 |
| CTTGCCGGCC | 1.05 |
| CTTGCGACCC | 1.35 |
| CTTGCGACTT | 0.984 |
| CTTGCTGTGG | 0.981 |
| CTTGCTTGGG | 0.972 |
| CTTGGACCTT | 1.17 |

| Sequence | switch fluorescence ratio |
| --- | --- |
| CTTGGAGGAC | 1.07 |
| CTTGGATTA | 0.997 |
| CTTGGATTGT | 0.965 |
| CTTGGGCACG | 1.05 |
| CTTGGTCCGC | 2.71 |
| CTTGGTGATG | 1.03 |
| CTTGTAACGA | 0.965 |
| CTTGTACG | 0.985 |
| CTTGTACTCT | 1 |
| CTTGTCGAAT | 1.02 |
| CTTGTCGATG | 0.99 |
| CTTGTGAAGT | 0.999 |
| CTTGTGGGCC | 1.02 |
| CTTGTGTGTG | 0.994 |
| CTTGTTGACG | 1.09 |
| CTTTAAACGA | 1.02 |
| CTTTAAACGT | 1.02 |
| CTTTAATAAC | 1.05 |
| CTTTACGCAC | 1.81 |
| CTTTAGGCCA | 1.02 |
| CTTTAGGCCT | 1.08 |
| CTTTATCATA | 1.01 |
| CTTTCAGGG | 0.994 |
| CTTTCTTATG | 0.969 |
| CTTTGAGAAT | 1.01 |
| CTTTGATTTG | 1 |

| Sequence | switch fluorescence ratio |
| --- | --- |
| CTTTGCAGGC | 1.22 |
| CTTTGCTAGC | 1.09 |
| CTTTGGCCTT | 1.01 |
| CTTTGGGGG | 0.937 |
| CTTTGTCGGC | 1.01 |
| CTTTGTCGTA | 0.999 |
| CTTTTCTCGG | 1.15 |
| CTTTTCTTGA | 0.964 |
| CTTTTGCATA | 1.23 |
| CTTTTGCGCG | 0.968 |
| CTTTTGGGTT | 0.953 |
| CTTTTGGTCT | 0.983 |
| CTTTTTGAAA | 0.957 |
| CTTTTTGGGC | 0.982 |
| CTTTTTTTAT | 1.02 |
| GAAAAAAATG | 1.01 |
| GAAAAACAAC | 1.1 |
| GAAAAATAAT | 0.969 |
| GAAAAATTGA | 0.964 |
| GAAAACAAAG | 0.978 |
| GAAAAGATTT | 0.98 |
| GAAAAGTACT | 1.06 |
| GAAAAGTTAT | 1 |
| GAAAATGTGA | 0.956 |
| GAAAATTGGC | 0.987 |
| GAAAATTTGG | 1.01 |

| Sequence | switch fluorescence ratio |
| --- | --- |
| GAAACAGGGG | 1.07 |
| GAAACCACGG | 1.13 |
| GAAACCGCCG | 1.13 |
| GAAACCTAAT | 1.03 |
| GAAACTGAGG | 0.989 |
| GAAAGAACAC | 1.05 |
| GAAAGAGAGA | 1.01 |
| GAAAGCCGTC | 0.88 |
| GAAAGTGCAG | 0.975 |
| GAAATAGAAT | 0.94 |
| GAAATAGACC | 1 |
| GAAATCAATG | 0.949 |
| GAAATCCACT | 0.987 |
| GAAATCCAGA | 0.951 |
| GAAATGACGT | 1.04 |
| GAAATGGATA | 1.02 |
| GAAATTATGC | 0.924 |
| GAACAAATGC | 1.08 |
| GAACAAGAAG | 0.961 |
| GAACCAAATT | 1.02 |
| GAACCAAGCA | 1.06 |
| GAACCTGGGA | 1.01 |
| GAACCTGTGG | 0.966 |
| GAACCTTGTT | 1.01 |
| GAACGCCCTG | 1.01 |
| GAACGCGAT | 2.82 |

| Sequence | switch fluorescence ratio |
| --- | --- |
| GAACGCTGTT | 1.01 |
| GAACGGAGGG | 1.06 |
| GAACGGCCTG | 1.07 |
| GAACGGTGCA | 0.955 |
| GAACGTATAT | 1.14 |
| GAACGTCGAG | 0.998 |
| GAACGTTGTA | 1.03 |
| GAACTAGCGA | 1.01 |
| GAACTCACG | 1.23 |
| GAACTCCATA | 1.03 |
| GAACTCGCGT | 1.06 |
| GAACTCTGAA | 1 |
| GAACTTATA | 1.01 |
| GAACTTGCGG | 1.03 |
| GAACTTGTCG | 0.972 |
| GAAGAATATC | 0.975 |
| GAAGAATGAT | 0.973 |
| GAAGAATTCA | 0.992 |
| GAAGAGAGAC | 1.02 |
| GAAGAGGGGC | 1.06 |
| GAAGATACGA | 1.08 |
| GAAGATTAGC | 0.988 |
| GAAGATTCAG | 1 |
| GAAGCACGAA | 1.17 |
| GAAGCAGTAC | 1.23 |
| GAAGCATATG | 1.09 |

| Sequence | switch fluorescence ratio |
| --- | --- |
| GAAGCCAAG | 1.04 |
| GAAGCGACCG | 1.01 |
| GAAGCTTATG | 1.03 |
| GAAGGAATTT | 1.28 |
| GAAGGACTGT | 1.15 |
| GAAGGAGGTA | 0.949 |
| GAAGGATCGC | 0.997 |
| GAAGGGACAC | 1.07 |
| GAAGGGCCAT | 1.11 |
| GAAGGGGAC | 1.01 |
| GAAGGTAGCG | 0.923 |
| GAAGGTCTCA | 1.01 |
| GAAGTAATCT | 1.05 |
| GAAGTAATG | 1.04 |
| GAAGTAGTAC | 3.21 |
| GAAGTATGT | 1.02 |
| GAAGTCGATG | 1.02 |
| GAAGTGTAGA | 1.01 |
| GAAGTGTTTT | 0.949 |
| GAAGTTGCAT | 1.01 |
| GAATAACGTG | 1 |
| GAATAAGTGG | 0.981 |
| GAATACATCG | 1.01 |
| GAATACGACG | 1.03 |
| GAATAGGCGC | 0.983 |
| GAATAGTATG | 0.96 |

| Sequence | switch fluorescence ratio |
| --- | --- |
| GAATAGTTTA | 0.986 |
| GAATATAGAA | 1.01 |
| GAATCCATAG | 1.02 |
| GAATCGAAAG | 1.04 |
| GAATCGCCTT | 1.01 |
| GAATCTACGG | 1.07 |
| GAATCTGGTG | 1.1 |
| GAATCTTTCA | 0.975 |
| GAATGACGCT | 0.993 |
| GAATGACGGT | 1.03 |
| GAATGAGTAA | 1 |
| GAATGCCGAA | 1.01 |
| GAATGCGCAG | 0.996 |
| GAATGCGTGT | 1.09 |
| GAATGCTGTT | 0.977 |
| GAATGTAAAT | 0.989 |
| GAATGTCCGG | 0.987 |
| GAATGTTCCG | 0.98 |
| GAATTACAAT | 1.01 |
| GAATTAGAAT | 0.96 |
| GAATTATAGA | 1.01 |
| GAATTCATAA | 1 |
| GAATTGACTC | 0.972 |
| GAATTTGGTT | 1.01 |
| GACAAAGTTT | 1.01 |
| GACAACTATC | 1.05 |

| Sequence | switch fluorescence ratio |
| --- | --- |
| GACAAGAGGA | 1.05 |
| GACAAGGGTA | 0.937 |
| GACACAACGG | 1.02 |
| GACACAATGG | 1.43 |
| GACACACT | 1.59 |
| GACACATCTT | 1.02 |
| GACACGGTGC | 1.15 |
| GACACGTTAC | 1.86 |
| GACACTTCG | 1.01 |
| GACAGCGCCT | 1.04 |
| GACAGGATGG | 1.05 |
| GACAGTCAG | 1.01 |
| GACATAAACT | 1.01 |
| GACATAAGTA | 1 |
| GACATAG | 1.08 |
| GACATCGTGG | 0.986 |
| GACATGCCCT | 0.971 |
| GACATGGTTT | 0.956 |
| GACATTATGG | 1.03 |
